# Among all 45,000 compounds or so, about 200 (0.44%) were called active. About 7% were inconclusive and are not listed. Calls come from the whole dose curve; as a rule, active = well fitted activation curve with a large enough effect; inconclusive = small, poorly fitted or top-dose-only effect; inactive = no such curve, though single readings can be large or run the other way. The list shows a part of the results.
# Experiment: qHTS of TDP-43 Inhibitors: NCGC Sytravon Library Screen; note: 0% is about no effect; nearly all actives have a fitted effect of over 55% in size
# Settings: yeast TDP-43 toxicity rescue, BacTiter-Glo growth, 24 h; series mostly up to 46.1 µM; growth rescue (activation): at the top concentration
# Outline: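 TDP-43-expressing yeast, pregrown in raffinose, seeded at OD600 0.02 in galactose medium with compound for 24 hr at 30 deg C. Growth read by BacTiter-Glo luminescence, so rescue of toxicity appears as activation.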
row,Compound,growth rescue (activation)
1,Cc1ccc(NC(=O)CSc2nc3c(c(=O)n(C)c(=O)n3C)n2C)cc1,inactive: -1.39%
2,CC(C)(CO)NCC(=O)Nc1cc(C(F)(F)F)cc(NC(=O)CNC(C)(C)CO)c1Cl,inactive: 12%
3,O=C(C[n+]1ccccc1)Nc1c(Cl)cc(Cl)cc1Cl,inactive: 7.74%
4,CN(C)C(CNC(=S)Nc1ccccc1Cl)c1cccnc1 (stereo not drawn),inactive: 7.41%
5,CC(C)NC(=O)c1cc(C2CCCCN2C(=O)c2ccc(C(C)C)cc2)on1 (stereo not drawn),inactive: 3.25%
6,COc1cc(/C=c2/sc3nc(-c4ccccc4)c(-c4ccccc4)n3c2=O)cc(OC)c1OC,inactive: 17.8%
7,c1ccc2c(N3CCCC3)nc(-c3ccncc3)nc2c1,inactive: 5.14%
8,O=C(Nc1cc(S(=O)(=O)Nc2ccccc2F)ccc1Cl)c1ccc(F)cc1F,inactive: 8.8%
9,COc1ccc(C)cc1NC(=O)C(OC(=O)c1cccc(S(=O)(=O)N(C)c2ccccc2)c1)c1ccccc1 (stereo not drawn),inactive: 4.48%
10,CCN(CC)S(=O)(=O)c1cccc(C(=O)N[C@H](C(=O)NC2=NCCS2)C(C)C)c1,inactive: 13.1%
11,COc1cc(NC(=O)COC(=O)c2cc(S(=O)(=O)N3CCOCC3)ccc2F)cc(OC)c1,inactive: 8.21%
12,COc1ccc(CCNC(=O)C/C(C)=N/NC(=O)c2ccc([N+](=O)[O-])cc2Cl)cc1OC,inactive: 9.82%
13,Cc1cc(C(F)(F)F)c(C#N)c(SCC(=O)Nc2nc3ccccc3s2)n1,inactive: 4.25%
14,COc1cccc(NC(=S)N(CCc2ccc(OC)c(OC)c2)Cc2ccccn2)c1,inactive: 3.37%
15,CCN1CCN(c2cc(C)c3cc(NC(=S)N4CCCC(C)C4)ccc3n2)CC1 (stereo not drawn),inactive: 20.6%
16,NC1CCCCC1N=Cc1c(O)n(CCc2ccc(F)cc2)c(=O)[nH]c1=O (stereo not drawn),inactive: 8.53%
17,COc1ccc(S(=O)(=O)N2CCCCC2)cc1NC(=O)C1COc2ccccc2O1 (stereo not drawn),inactive: 17.2%
18,CC(NC(=O)c1ccccc1NC(=O)c1ccccc1)C(=O)N1CCOCC1 (stereo not drawn),inactive: -2.04%
19,O=C(CN1CCN(CC(=O)Nc2ccc(-c3ccccc3)cc2)CC1)Nc1ccc(F)cc1,inactive: 21.5%
20,CN(Cc1ccccc1F)Cc1cc(=O)oc2cc(O)c(Cl)cc12,inactive: -10%
21,NS(=O)(=O)c1cccc(NC(=O)COC(=O)c2cc([N+](=O)[O-])ccc2N2CCCC2)c1,inactive: 0.355%
22,CC(C)(C)C(=O)Nc1ccc(C(=O)N/N=C/c2ccccc2OC(=O)c2ccc(Cl)cc2Cl)cc1,inactive: 9.55%
23,COc1cc(C(=O)N/N=C/c2ccccn2)cc(OC)c1OC,inactive: 1.33%
24,COc1cccc(N2CCN(c3c4c(nc5nncn35)CCC4)CC2)c1,inactive: 35.5%
25,COc1cccc(C(=O)COC(=O)CCCC(=O)NC2CCCCC2)c1,inactive: 12.9%
26,CS(=O)(=O)Nc1ccccc1C(=O)NCC1(N2CCCCC2)CCCCC1,inactive: 2.33%

row,Compound,growth rescue (activation)
1,Fc1ccc(-c2cn(-c3ccccc3)c3[n+]2CCS3)cc1,inactive: -12.8%
2,CC(C)NC(=O)C1(C)CCCCCN1C(=O)c1ccc(-c2ccccc2)cc1 (stereo not drawn),inactive: 11%
3,Cc1ccccc1OCCCC(=O)Nc1ccc(S(=O)(=O)Nc2onc(C)c2C)cc1,inactive: 13.2%
4,COc1ccc(S(=O)(=O)NCC2CCCN(C(=O)CC3CCCC3)C2)cc1 (stereo not drawn),inactive: -25.4%
5,COCCCN1C(=O)c2ccc(C(=O)OCC(=O)N(C)c3ccccc3)cc2C1=O,inactive: 9.97%
6,O=C(CCNS(=O)(=O)c1ccc(Cl)cc1)N1CCCCCC1,inactive: -6.63%
7,Cc1ccc(/C=C/C(=O)Nc2ccccc2C(N)=O)cc1,inactive: -3.97%
8,COc1ccc(C=O)cc1CN1CCCN(Cc2ccc(Cl)cc2)S1(=O)=O,inactive: -1.97%
9,COc1ccc(Cl)cc1NC(=O)c1cc(C)no1,inactive: 12.1%
10,Cc1cc(Cl)cc(C)c1OCCn1ccnc1,inactive: -7.64%
11,O=C(CSc1n[nH]c(-c2ccccn2)n1)Nc1ccc(F)cc1,inactive: 2.62%
12,O=C(CSc1nncs1)Nc1ccc(S(=O)(=O)N2CCCC2)cc1,inactive: 16.7%
13,Cc1ccc(C2C(C#N)=C(N)Oc3n[nH]c(-c4cccnc4)c32)o1 (stereo not drawn),inactive: 3.62%
14,COc1ccc(NC2(c3ccc(Cl)cc3)C(=O)c3ccccc3C2=O)cc1,inactive: -4.2%
15,Cc1ccc(NC(=O)c2cc(NC(=O)C3CC=CCC3C(=O)O)ccc2N2CCOCC2)cc1 (stereo not drawn),inactive: -0.106%
16,C=CCn1c(SCC(=O)Nc2nnc(CC)s2)nnc1-c1ccncc1,inactive: -9.26%
17,NC(=O)c1ccccc1NC(=O)CC1(CC(=O)O)CCCC1,inactive: 15.6%
18,C#CCOc1ccc2c3c(c(=O)oc2c1)CCCC3,inactive: 21.5%
19,O=C(Nc1nc2ccc(Cl)cc2s1)c1ccc(N2CCCCC2)c([N+](=O)[O-])c1,inactive: -4.11%
20,O=C(CSc1nnc(Nc2ccccc2)s1)Nc1cccc(S(=O)(=O)N2CCCCC2)c1,inactive: 22.1%
21,CC(NC(=S)Nc1ccc(S(=O)(=O)N2CCOCC2)cc1)C1CC2CCC1C2 (stereo not drawn),inactive: 2%
22,Cc1ccccc1NC(=O)N1C2CCCC1CC(NC(=O)C(C)(C)C)C2 (stereo not drawn),inactive: 6.13%
23,O=[N+]([O-])c1ccccc1CN1CCN(Cc2c[nH]c3ccccc23)CC1,inactive: 15.3%
24,CN(C(=O)CN1C(=O)c2ccccc2S1(=O)=O)C1CCCCC1,inactive: 2.94%
25,COCc1cc(=O)n2[nH]c(SCc3ccccc3)nc2n1,inactive: 3.02%
26,CCOC(=O)c1nc(-c2ccccc2)oc1N1CCOCC1,inactive: 22%

row,Compound,growth rescue (activation)
1,CC(=O)NCCNC(=O)c1ccc2c(c1)S(=O)(=O)c1ccccc1C2=O,inactive: 7.22%
2,CC(=O)N1c2c(cc(Br)cc2S(=O)(=O)N2CCCCC2)CC1C (stereo not drawn),inactive: 7.38%
3,CCc1ccc2c(c1)C(c1ccc([N+](=O)[O-])cc1)=NNC(c1ccc(Br)cc1)=N2,inactive: -32.9%
4,Cc1cccc(C)c1NC(=S)N1CCCCCC1,inactive: 19.1%
5,O=C(NCC1CCCCC1)c1ccc2nc([C@@H]3O[C@H](CO)[C@@H](O)[C@H]3O)[nH]c2c1,inactive: 6.09%
6,COc1ccc(S(=O)(=O)N(CC(=O)NCCSc2ccccn2)c2ccccc2)cc1,inactive: 12.1%
7,COc1ccccc1NC(=O)N1CCN(Cc2ccc3c(c2)OCO3)CC1,inactive: 4.08%
8,CN1CCN(C2=NC(=O)/C(=C/c3ccccc3OS(=O)(=O)c3ccccc3)S2)CC1,inactive: -0.859%
9,O=c1[nH]ncc(N2CCCCCC2)c1Cl,inactive: 3.33%
10,COc1ccc(CCNC(=O)COC(=O)c2cccn2C)cc1,inactive: 20%
11,COc1cc(CCN2C(=O)c3cccc4cccc(c34)C2=O)c(S(=O)(=O)N2CCC(C)CC2)cc1OC,inactive: -14%
12,Cc1ccc(CSc2ccc(S(=O)(=O)N3CCCCC3)cn2)cc1,inactive: 16.4%
13,Cn1c(N)c(C(=O)COC(=O)c2ccccc2C(=O)c2ccc(Cl)c([N+](=O)[O-])c2)c(=O)n(C)c1=O,inactive: 5.03%
14,O=C(c1ccc(F)cc1)c1cc2ccc(O)cc2oc1=O,inactive: -44.8%
15,COc1ccc(-n2nc([N+](=O)[O-])c(=NC3CCN(Cc4ccccc4)CC3)n2O)cc1,inactive: 9.92%
16,COc1cc(C)c(C(C)C)cc1S(=O)(=O)NC1CC(C)(C)NC(C)(C)C1,inactive: 1.95%
17,COc1ccc(OC)c(S(=O)(=O)N2CCC(C(=O)NCc3ccccn3)CC2)c1,inactive: 6.08%
18,COc1ccc(NC(=O)C2(C)Cc3c(-c4ccccc4)ccnc3O2)cc1OC (stereo not drawn),inactive: 7.75%
19,COCCNc1nc(Oc2ccc(NC(C)=O)cc2)c2sc(-c3ccccc3)cc2n1,inactive: 24.9%
20,Cc1ccc(NC(=O)COC(=O)/C=C/c2cccc(Cl)c2)cc1S(=O)(=O)N1CCOCC1,inactive: -33.4%
21,Cc1cc(NC(=O)COC(=O)C2CC(=O)N(c3ccccc3Cl)C2)no1 (stereo not drawn),inactive: -17.7%
22,COc1cccc(C(=O)N(Cc2sccc2C)C2CCS(=O)(=O)C2)c1 (stereo not drawn),inactive: 15.8%
23,O=C(Cc1ccc(F)cc1)NCC1CCCO1 (stereo not drawn),inactive: -1.84%
24,O=C(COC(=O)c1cc(S(=O)(=O)N2CCOCC2)ccc1O)Nc1cc(S(=O)(=O)N2CCCC2)ccc1Cl,inactive: -12.4%
25,Cc1cc(C)n(-c2c(F)c(F)c(CN3CCOCC3)c(F)c2F)n1,inactive: 14.8%
26,CCOc1ccc(S(=O)(=O)N(C)c2ccc(OCC(=O)Nc3nc4ccccc4s3)cc2)cc1,inactive: 1.24%

row,Compound,growth rescue (activation)
1,COc1cccc(NC(=O)N[C@@H](Cc2ccccc2)C(=O)O)c1,inactive: -18.5%
2,C/C(=N/NC(=O)Cc1cccs1)c1ccco1,inactive: 17.8%
3,c1ccc(N2CCN(Cc3nc4ccccc4[nH]3)CC2)nc1,inactive: 12.6%
4,CN(CCOc1ccccc1)CC(O)COCc1ccccc1F (stereo not drawn),inactive: -4.32%
5,Cc1c(Cl)cccc1NC(=S)NCc1cccn1C,inactive: 24.2%
6,COc1nc(OCC#N)nc(N(C)C)n1,inactive: 2.41%
7,NS(=O)(=O)c1cccc(NC(=O)CN2C(=O)C(=O)N(Cc3ccccc3)C2=O)c1,inactive: -5.7%
8,O=C(COc1ccc(F)c(Cl)c1)Nc1ccc(N2CCOCC2)cc1,inactive: 23.3%
9,O=C(CCc1ccccc1)NC1C2CC3CC(C2)CC1C3 (stereo not drawn),inactive: 17.9%
10,Cc1noc(C)c1CSCC(=O)OCc1nnc(-c2ccc([N+](=O)[O-])cc2)o1,inactive: 24.6%
11,COc1cc2c(cc1OC)CN(C(=O)COc1ccccc1[N+](=O)[O-])CC2,inactive: 24.9%
12,O=C(Nc1ccccc1)Nc1nnc(/C=C/c2ccccc2Cl)s1,inactive: 23.5%
13,CCOC(=O)C1(CC2CC2)CCN(C(=O)c2cc(C)nc3ccc(CC)cc23)CC1,inactive: 6.95%
14,O=C1Nc2cc3c(cc2Sc2ccccc21)OCCO3,inactive: -8%
15,O=C(Nc1ccc(N2CCOCC2)cc1)c1cc(-n2cnnc2)ccc1Cl,inactive: 7%
16,COc1ccc(C(=O)N[C@H](C(=O)Nc2sccc2C(N)=O)C(C)C)cc1,inactive: -15.4%
17,CCOc1ccc(NC(=O)C2Cc3ccccc3CN2S(=O)(=O)CC)cc1 (stereo not drawn),inactive: 11.7%
18,COc1ccc(C(C(N)=O)c2ncc(C(F)(F)F)cc2Cl)cc1OC (stereo not drawn),inactive: 3.81%
19,CCC(=O)Nc1ccc(NC(=S)NC(=O)Cc2ccccc2)cc1,inactive: -5%
20,O=C1CCC(C(=O)N2CCC(O)(c3ccccc3)CC2)CN1CCc1ccccc1 (stereo not drawn),inactive: 19.3%
21,O=C1C2CC=CCC2C(=O)N1c1ccc(N2CCN(c3ccccn3)CC2)c([N+](=O)[O-])c1 (stereo not drawn),inactive: -12.2%
22,Cc1ccc(N=C/C(C(=O)C(F)(F)F)=C(\O)c2ccco2)cc1Cl,inactive: -3.77%
23,CS(=O)(=O)Nc1cccc(S(=O)(=O)N2CCN(C(=O)c3ccccc3)CC2)c1,inactive: -5.39%
24,CCOC(=O)c1c(C)[nH]c(C(=O)CN2C(=O)NC(C)(C)C2=O)c1C,inactive: 30.4%
25,NC(=O)c1nsc(C(=O)N(Cc2ccco2)C(C(=O)NCC2CCCO2)c2ccc(F)cc2)c1N (stereo not drawn),inactive: -10.8%

# From PubChem BioAssay AID1347073 (National Center for Advancing Translational Sciences (NCATS), 2019)
